{"source": "PubChem BioAssay AID2675", "about": "(National Center for Advancing Translational Sciences (NCATS), 2010)", "note": "Hit rate of the full screen: of about 280,000 compounds, about 100 (0.036%) were called active. This list was built around the results that the source calls inconclusive (neither active nor inactive); the mix of calls is not that of the screen. Calls come from the whole dose curve; as a rule, active = well fitted inhibition curve with a large enough effect in the signal ratio, with a control signal flat (not every such curve was filed as active); inconclusive = small, poorly fitted or top-dose-only effect, or effect the other way, or a change in a side signal; inactive = no such curve, though single readings can be large or run the other way; the % refers to the signal ratio. Potencies of inconclusive entries are doubtful fits and often do not repeat. “Side channel” marks fits to a control or component signal instead of the main read-out. Potency is the fitted concentration of half-maximal effect; tags give direction and shape of the fitted curve or compound fluorescence and quenching."}
{"molecular_target": "Muscleblind-like protein 1 (Homo sapiens) (UniProt Q9NR56)", "sequence (Q9NR56 whole entry, looked up)": "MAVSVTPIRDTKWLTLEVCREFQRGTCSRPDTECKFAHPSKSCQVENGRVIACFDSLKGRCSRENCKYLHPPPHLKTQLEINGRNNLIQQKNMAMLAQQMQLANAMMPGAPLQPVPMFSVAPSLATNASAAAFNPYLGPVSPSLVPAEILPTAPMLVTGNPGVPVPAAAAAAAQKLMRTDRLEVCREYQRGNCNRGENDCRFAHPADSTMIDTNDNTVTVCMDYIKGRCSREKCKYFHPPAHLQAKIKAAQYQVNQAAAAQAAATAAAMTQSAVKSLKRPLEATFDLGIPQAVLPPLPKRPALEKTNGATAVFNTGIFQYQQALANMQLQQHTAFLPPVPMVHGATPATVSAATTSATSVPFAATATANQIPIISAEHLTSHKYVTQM", "test": "qHTS Assay for Inhibitors of MBNL1-poly(CUG) RNA binding", "conditions": "TR-FRET MBNL1-His/biotin-(CUG)12 binding, 665/545 ratio; series mostly up to 57.5 µM", "how_it_was_run": "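TR-FRET readout: Ex 340 nm, 665/545 nm emission ratio, normalized to buffer-only (basal) and MBNL1-(CUG)12 controls. Complex of MBNL1-His with Biotin-(CUG)12, compounds 92 nM–58 uM, incubated 60 min at room temperature.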"}
{"smiles": "CC(CCCC(C)(C)O)NC(=O)c1cc(COc2ccc3ncccc3c2)on1", "note": "(stereo unspecified)", "Potency": "inactive"}
{"smiles": "Cc1nc(SCC(=O)c2ccc(Cl)cc2)c([N+](=O)[O-])[nH]1", "Potency": "inconclusive: 14.1 µM [quencher, side channel, partial curve]"}
{"smiles": "COC(=O)CS(=O)(=O)c1cc([N+](=O)[O-])ccc1NC(=O)OC", "Potency": "inconclusive: 11.2 µM [quencher, side channel, partial curve]"}
{"smiles": "CC(=O)c1sc2nc(-c3ccco3)ccc2c1N", "Potency": "inconclusive: 17.8 µM [quencher, side channel, partial curve]"}
{"smiles": "COc1cccc(C(=O)Nc2ccc3c(c2)C(=O)N(CC2CCCO2)C3=O)c1", "note": "(stereo unspecified)", "Potency": "inconclusive: 15.8 µM [quencher, side channel, partial curve]"}
{"smiles": "Cc1ccc(OCC(=O)Nc2ccc(C)c(S(=O)(=O)N3CCCCCC3)c2)c([N+](=O)[O-])n1", "Potency": "inconclusive: 31.6 µM [quencher, side channel, single point]"}
{"smiles": "CC(=O)C1=C(C)NC(SCC(=O)c2ccc(C)cc2)=C(C#N)C1c1ccco1", "note": "(stereo unspecified)", "Potency": "inconclusive: 17.8 µM [quencher, side channel, partial curve]"}
{"smiles": "Cc1ccc(OCC(=O)Nc2ccc(NC(=O)c3ccccc3)cc2)cc1C", "Potency": "inactive"}
{"smiles": "CN(NC(=O)c1ccco1)c1nc2ccccc2nc1C(F)(F)F", "Potency": "inactive"}
{"smiles": "Cc1ccc(S(=O)(=O)N2CCN(CC(=O)N/N=C/C=C/c3ccccc3)CC2)cc1", "Potency": "inconclusive: 2.24 µM [quencher, side channel, full curve]"}
{"smiles": "O=[N+]([O-])c1ccc2nc(/C=C/c3ccc(Cl)cc3)[nH]c2c1", "Potency": "inconclusive: 31.6 µM [quencher, side channel, single point]"}
{"smiles": "O=[N+]([O-])c1ccc(CNc2cccc(F)c2)s1", "Potency": "inconclusive: 25.1 µM [quencher, side channel, partial curve]"}
{"smiles": "CN(CCOCCOc1ccc(Cl)cc1Br)Cc1ccccc1", "Potency": "inactive"}
{"smiles": "COc1ccc(-c2nc(CSCC(=O)NCCCN3CCCC3=O)c(C)o2)cc1OC", "Potency": "inactive"}
{"smiles": "COc1ccc(-c2c(C)nn3c(-c4ccccc4)cc(C)nc23)cc1", "Potency": "inactive"}
{"smiles": "NC(=O)COC(=O)CNC(=O)c1sc2ccccc2c1Cl", "Potency": "inconclusive: 35.5 µM [quencher, side channel, single point]"}
{"smiles": "CCC(C)NC(=O)CN(c1cc(Cl)ccc1OC)S(C)(=O)=O", "note": "(stereo unspecified)", "Potency": "inconclusive: 0.562 µM [fluorescent, side channel, full curve]"}
{"smiles": "CCOC(=O)c1[nH]c2ccc(OC)cc2c1NC(=S)N1CCN(c2cccc(C)c2C)CC1", "Potency": "inactive"}
{"smiles": "CCOC(=O)C(C)N1N=C(/C=C/c2ccc(C)cc2)CCC1=O", "note": "(stereo unspecified)", "Potency": "inconclusive: 20 µM [quencher, side channel, partial curve]"}
{"smiles": "O=C(O)c1ccc(-n2cncn2)c([N+](=O)[O-])c1", "Potency": "inconclusive: 44.7 µM [quencher, side channel, partial curve, poor fit]"}
{"smiles": "CC(C)CN1C(=O)c2ccc(C(=O)Nc3ccc(OCC(=O)O)cc3)cc2C1=O", "Potency": "inconclusive: 6.31 µM [quencher, side channel, partial curve]"}
{"smiles": "CC1=CC(=C2C=CC(=O)C=C2)C=C(C)N1C", "Potency": "inconclusive: 0.794 µM [fluorescent, side channel, single point]"}
{"smiles": "O=C(Nc1nc(-c2nc3ccccc3s2)cs1)c1ccc(S(=O)(=O)N2CCOCC2)cc1", "Potency": "inconclusive: 0.794 µM [fluorescent, side channel, single point]"}
{"smiles": "O=C(Cc1ccc([N+](=O)[O-])cc1)N/N=C/c1ccco1", "Potency": "inconclusive: 12.6 µM [quencher, side channel, partial curve]"}
{"smiles": "NC(=O)c1ccc(NC(=O)CSC2=Nc3ccccc3C3CC=NN23)cc1", "note": "(stereo unspecified)", "Potency": "inconclusive: 50.1 µM [inhibitor, single point]"}
{"smiles": "O=C(CN1CCOCC1)Nc1ccc([N+](=O)[O-])cc1Br", "Potency": "inconclusive: 5.62 µM [quencher, side channel, partial curve]"}
{"smiles": "CC(=O)c1ccc(Nc2nc(C)nc3c2oc2ccccc23)cc1", "Potency": "inactive"}
{"smiles": "COc1ccc(C(=O)N/N=C/c2ccc(OC)c(COc3ccc(F)cc3F)c2)cc1", "Potency": "inactive"}
{"smiles": "CC(=O)c1cccc(NC(=O)CN(c2ccc(C)cc2)S(=O)(=O)c2cccc3nonc23)c1", "Potency": "inconclusive: 25.1 µM [quencher, side channel, partial curve]"}
{"smiles": "Cc1ccccc1-c1nc2ccccc2c(=O)n1/N=C/c1ccccc1[N+](=O)[O-]", "Potency": "inconclusive: 12.6 µM [quencher, side channel, partial curve]"}
{"smiles": "CCOc1ccc(C2OC34CCCCC3C(C#N)(C#N)C2(C#N)C(=N)O4)cc1OC", "note": "(stereo unspecified)", "Potency": "inconclusive: 31.6 µM [quencher, side channel, single point]"}
{"smiles": "COc1cc(/C=C2/CC/C(=C/c3ccc(O)c(OC)c3)C2=O)ccc1O", "Potency": "inconclusive: 7.94 µM [quencher, side channel, partial curve]"}
{"smiles": "Cc1cccc(NC(=O)CCNS(=O)(=O)c2cccc3nsnc23)c1", "Potency": "inconclusive: 15.8 µM [quencher, side channel, partial curve]"}
{"smiles": "COc1ccc(CCNC(=O)c2ccc3c(c2)N(Cc2ccc(C)cc2)CCS3)cc1OC", "Potency": "inconclusive: 31.6 µM [fluorescent, side channel, single point]"}
{"smiles": "COc1cc2c(cc1OC)CN(C(=S)Nc1ccc(C)cc1C)CC2", "Potency": "inactive"}
{"smiles": "C=CCOC(=O)C1=C(C)OC(N)=C(C#N)C1c1ccc(OC)c(CSc2ccccn2)c1", "note": "(stereo unspecified)", "Potency": "inactive"}
{"smiles": "CCOc1cc(/C=C2\\SC(N3CCCCC3)=NC2=O)ccc1O", "Potency": "inconclusive: 12.6 µM [quencher, side channel, partial curve]"}
{"smiles": "CCOC(=O)NCC(C#CCN(CC)CC)N(CC)CC", "note": "(stereo unspecified)", "Potency": "inconclusive: 3.98 µM [quencher, side channel, partial curve]"}
{"smiles": "Clc1nccnc1N/N=C/c1ccc(Br)cc1", "Potency": "inconclusive: 15.8 µM [quencher, side channel, partial curve]"}
{"smiles": "COc1ccc(CN2C(=O)CC(Cc3cc(C)cc(C)c3)C2=O)cc1OC", "note": "(stereo unspecified)", "Potency": "inconclusive: 28.2 µM [fluorescent, side channel, partial curve]"}
{"smiles": "CC1=CC(C)(C)Nc2ccc(OC(=O)CN3C(=O)CCC3=O)cc21", "Potency": "inactive"}
{"smiles": "Cc1ccc(S(=O)(=O)N2CCC(N3CCCCCC3)CC2)cc1", "Potency": "inconclusive: 39.8 µM [quencher, side channel, single point]"}
{"smiles": "CC(=O)C1C(=O)C=C(c2cccs2)CC1c1ccccc1", "note": "(stereo unspecified)", "Potency": "inconclusive: 31.6 µM [quencher, single point]"}
{"smiles": "Oc1cccc(/C=C/c2ccc3cccc(O)c3n2)c1", "Potency": "inconclusive: 31.6 µM [quencher, side channel, single point]"}
{"smiles": "Cc1[nH]n(-c2ccccc2)c(=O)c1N=Nc1ccc(C(N)=O)cc1", "Potency": "inconclusive: 2.82 µM [quencher, side channel, full curve]"}
{"smiles": "CCn1cc(/C=C2/SC(=S)NC2=O)c(C)n1", "Potency": "inconclusive: 22.4 µM [quencher, side channel, partial curve]"}
{"smiles": "O=C1/C(=C/c2ccco2)SC(=S)N1CCC(=O)N1CCCCC1CCO", "note": "(stereo unspecified)", "Potency": "inconclusive: 11.2 µM [quencher, side channel, partial curve]"}
{"smiles": "c1ccc(-c2onc3cc4c(cc23)OCCO4)cc1", "Potency": "inconclusive: 22.4 µM [quencher, single point]"}
{"smiles": "COc1ccc(C(=O)CC(=O)C(=O)Nc2ccccc2C(F)(F)F)cc1", "Potency": "inactive"}
{"smiles": "Cc1nn(CC(=O)Nc2ccc(Cl)cn2)c(C)c1Br", "Potency": "inconclusive: 8.91 µM [quencher, side channel, single point]"}
{"smiles": "Cc1nc(SCc2ccc(O)c([N+](=O)[O-])c2)c([N+](=O)[O-])[nH]1", "Potency": "inconclusive: 15.8 µM [quencher, side channel, partial curve]"}
{"smiles": "O=[N+]([O-])c1ccc(Cl)c(CN2CCN(c3ncccn3)CC2)c1", "Potency": "inconclusive: 22.4 µM [quencher, partial curve]"}
{"smiles": "CN(C)CC1CCCCC1C1(O)c2ccccc2CSc2sccc21", "note": "(stereo unspecified)", "Potency": "inconclusive: 31.6 µM [inhibitor, single point]"}
{"smiles": "CC(C)c1ccc(Nc2ccc(C(=O)O)cc2[N+](=O)[O-])cc1", "Potency": "inconclusive: 28.2 µM [quencher, side channel, partial curve]"}
{"smiles": "Cc1csc(NC(=O)c2cc[n+]([O-])cc2)n1", "Potency": "inactive"}
{"smiles": "FC(F)(F)c1ccc2c(c1)N1CCCC1CN2", "note": "(stereo unspecified)", "Potency": "inconclusive: 14.1 µM [quencher, side channel, partial curve]"}
{"smiles": "N#CC1=C(N)Oc2c(sc3ccccc23)C1c1ccco1", "note": "(stereo unspecified)", "Potency": "inconclusive: 8.91 µM [quencher, partial curve]"}
{"smiles": "COc1ccccc1/C=C1\\SC(=O)N(CCC(=O)NCCCn2ccnc2)C1=O", "Potency": "inconclusive: 25.1 µM [quencher, side channel, partial curve]"}
{"smiles": "O=C(Nc1cccc(C(=O)Nc2ccc(S(=O)(=O)O)c3cc(S(=O)(=O)O)cc(S(=O)(=O)O)c23)c1)Nc1cccc(C(=O)Nc2ccc(S(=O)(=O)O)c3cc(S(=O)(=O)O)cc(S(=O)(=O)O)c23)c1", "Potency": "inconclusive: 15.8 µM [quencher, side channel, partial curve]"}
{"smiles": "Cc1cc(NC(=O)c2ccc(Cl)cc2Cl)no1", "Potency": "inactive"}
{"smiles": "Cc1ccc(-c2nnc3ccc(SC(C)C(=O)O)nn23)cc1", "note": "(stereo unspecified)", "Potency": "inconclusive: 10 µM [quencher, side channel, partial curve, poor fit]"}
